# In PubChem BioAssay AID2546 (National Center for Advancing Translational Sciences (NCATS), 2010):
# The campaign covered roughly 310,000 compounds. About 11,000 (3.5%) were called active. Inconclusive results, whose numbers are uncertain, are shown with a selection of clear calls. The call rests on the fitted dose curve; in most records, active means well fitted inhibition curve with a large enough effect; inconclusive means small, poorly fitted or top-dose-only effect, or effect the other way; inactive means flat fitted curve, though single readings scatter. Potencies of inconclusive entries are left out as doubtful fits.
# Assay: VP16 counterscreen qHTS for inhibitors of ROR gamma transcriptional activity;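 further: Gal4-VP16 expression switched on by copper sulfate through the metallothionein promoter; nearly all actives have a fitted effect of over 50% in size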
# Conditions: Drosophila S2 Gal4-VP16 UAS-luciferase, luminescence, 20 h; activity, negative = inhibition: at 53.6 µM (top of the series)
# On the % scale 0 is the no-effect control and ±100 the full control effect; potency means the concentration at half of the fitted maximal effect; tags describe the fitted curve by direction and shape.
SMILES,Potency,"activity, negative = inhibition"
COC(=O)c1c(C)[nH]c(C(=O)/C=C/c2ccc(C)cc2)c1C,active: 3.98 µM,–
CC(C)OC(=O)c1cc2c(ccn2C)n1CC(=O)N(Cc1ccccc1)c1ccc(F)cc1,"inconclusive [inhibitor, single point]",–
CN(C)c1ccc(/C=c2\sc3n(c2=O)CCCN=3)cc1,"inconclusive [inhibitor, partial curve]",–
C=C(C)C1Cc2c(C)nn(-c3ccccn3)c2C1 (configuration not stated),"inconclusive [inhibitor, single point]",–
Cc1cc(-c2n[nH]c(=S)n2-c2ccc(C)c(C)c2)no1,–,inactive: -17.5%
CCOc1cc(/C=C2\SC(=N)N(c3nonc3N)C2=O)ccc1OCCN1CCOCC1,"inconclusive [inhibitor, single point]",–
CCCCCCCCC(=O)N/N=C(\C)c1ccc(O)cc1O,"inconclusive [inhibitor, single point]",–
S=c1[nH]nc(-c2ccc(Br)o2)n1Cc1ccccc1,active: 12.6 µM,–
CN(C)C(=O)c1ccc(-c2cc(NCc3ccccc3)ncn2)cc1,–,inactive: 0.723%
C/C(=N/NC(=O)c1cc2ccccc2cc1O)c1ccco1,"inconclusive [inhibitor, single point]",–
CC(C)(C)c1ccc(-n2ncc3c2CCCC3NC(=O)CCN2CCCCC2=O)cc1 (configuration not stated),"inconclusive [inhibitor, single point]",–
Cc1cccc(CCN(Cc2cc3cccc(C)c3[nH]c2=O)C(=O)N2CCOCC2)c1,–,inactive: 3.7%
NC(=S)N/N=C1\CC(n2nnnc2-c2ccccc2)C2COC1O2 (configuration not stated),"inconclusive [inhibitor, single point]",–
Cc1ccc(C(=O)NC(=S)NNC(=O)c2ccc([N+](=O)[O-])cc2)cc1,active: 11.2 µM,–
COC(=O)c1cccc(NC(=O)c2cccc(OC)c2)c1,"inconclusive [activator, single point]",–
Cc1ccccc1NC(=O)c1ccc(F)c(S(=O)(=O)N2CCCCC2)c1,–,inactive: 13.7%
CC(=C/c1ccccc1)/C=N/NC(=O)CSc1nc(C)cc(C)n1,"inconclusive [activator, single point]",–
CCCCCC(=O)N/N=C/c1cc(Br)c(O)c(OC)c1,"inconclusive [inhibitor, partial curve, poor fit]",–
Cc1ccc(O)c(C2=NNC(c3ccc(Cl)cc3)C2)c1 (configuration not stated),active: 12.6 µM,–
COc1c(Cl)cc(Cl)cc1/C=C/C(=O)c1ccc(NC(=O)c2cccs2)cc1,"inconclusive [inhibitor, single point]",–
c1ccc(-n2nnc3c(N4CCOCC4)ncnc32)cc1,"inconclusive [inhibitor, full curve, poor fit]",–
C/C(CCc1ccc2c(c1)OCO2)=N\N=C1\NC(=O)CC(C(=O)Nc2ccccc2F)S1 (configuration not stated),"inconclusive [inhibitor, single point]",–
Cc1ccc(C(=O)Nc2c(-c3cccs3)c(=O)c3ccccc3n2C)cc1,–,inactive: 4.39%
O=C(/C=C/c1ccco1)Nc1nc(-c2ccccn2)cs1,active: 11.2 µM,–

SMILES,Potency,"activity, negative = inhibition"
Cc1cccc(C)c1NC(=O)c1ccc([N+](=O)[O-])s1,"inconclusive [inhibitor, single point]",–
COc1ccc(CN(C)C(=S)Nc2ccc(OC(F)F)cc2)cc1,"inconclusive [inhibitor, single point]",–
CC(=O)c1ccc(NC(=O)CCOc2cc(C)ccc2C)cc1,"inconclusive [activator, single point]",–
CCn1c(C)nc2cc(C(=O)N3N=C(CCOC)CC3(O)C(F)(F)F)ccc21 (configuration not stated),active: 35.5 µM,–
CC(=O)Oc1ccc(OC(C)=O)c(SCCCCCN2CCOCC2)c1,"inconclusive [inhibitor, single point]",–
CCOC(=O)C1CCN(C(=O)COc2ccc(Cl)cc2Cl)CC1,"inconclusive [inhibitor, partial curve]",–
COc1cc(/C=N/Nc2nn3cnnc3c3ccccc23)ccc1O,–,inactive: -28.4%
CCOc1cc(CNCCCN2CCOCC2)cc(Br)c1OCc1ccccc1Cl,"inconclusive [inhibitor, single point]",–
CC(C)OCCCNC(=O)C(Cc1ccccc1)NS(=O)(=O)c1ccc2c(c1)CCC(=O)N2 (configuration not stated),–,inactive: -4.92%
Cc1cc(=O)[nH]c2ccc(S(=O)(=O)Nc3ccc(O)cc3)cc12,–,inactive: 2.44%
Cc1sc2ncnc(NCc3ccccc3)c2c1C,active: 17.8 µM,–
O=C(Nc1ncc2c(n1)CC(c1ccc(Cl)cc1)CC2=O)c1ccco1 (configuration not stated),–,inactive: -14.3%
O=C(/C=C/c1ccccc1)c1ccccn1,"inconclusive [inhibitor, single point]",–
Cc1nn(-c2ccccc2)c2c1C(c1ccccc1)C(C#N)=C(N)O2 (configuration not stated),–,inactive: 28.7%
COc1ccc(-c2nnc(SCC(=O)NC(=O)NCc3ccco3)o2)cc1,"inconclusive [inhibitor, partial curve]",–
Cc1ccc(C(=O)N/C(=C\c2ccc(Br)cc2)c2nc(=S)[nH][nH]2)cc1,"inconclusive [inhibitor, single point]",–
COc1cccc(/C=N/n2c(COc3ccccc3)n[nH]c2=S)c1,"inconclusive [inhibitor, single point]",–
Cc1ccnc(NC(=O)c2ccc3c(c2)OCO3)c1,"inconclusive [inhibitor, partial curve]",–
O=C(c1cc(C(F)(F)F)cc(C(F)(F)F)c1)N1CCC2(CCCN(c3ncccn3)C2)CC1,"inconclusive [inhibitor, partial curve]",–
Cc1ccc(S(=O)(=O)N2CCCCC2)cc1C(=O)N(C)CC(=O)Nc1ccc(Cl)c(C(F)(F)F)c1,"inconclusive [inhibitor, single point]",–
Cc1cc(=O)n2[nH]c(C)c(-c3ccc(Cl)cc3)c2n1,active: 15.8 µM,–
Cc1ccc(-n2ncc3c(N4CCCC4)ncnc32)c(C)c1,–,inactive: -14.6%
Cc1ccc(S(=O)(=O)NC(c2ccccc2)C(C)C(=O)n2nc(C)cc2C)cc1 (configuration not stated),"inconclusive [inhibitor, single point]",–
Cc1ccc(/C(O)=C2\C(=O)C(=O)N(C)C2c2ccc(F)cc2)cc1 (configuration not stated),–,inactive: -2.22%

SMILES,Potency,"activity, negative = inhibition"
S=c1[nH]ccn1Cc1ccccc1,"inconclusive [inhibitor, single point]",–
CC(=O)c1cccc(NC(=O)C2CCCCC2)c1,"inconclusive [activator, single point]",–
Fc1cccc(/C=N/Nc2nc3ccccc3[nH]2)c1,"inconclusive [inhibitor, single point]",–
O=C(CNC(=S)N(Cc1ccccc1)Cc1cccnc1)NC1CC1,"inconclusive [activator, single point]",–
O=C(CSc1nnnn1-c1cccc(Cl)c1)Nc1ccc2c(c1)CCC2,active: 8.91 µM,–
CCn1c(CSc2nc3ccccc3s2)nc2ccccc21,"inconclusive [inhibitor, single point]",–
CC(C)c1ccc(OCc2ccc(C(=O)O)o2)cc1,"inconclusive [inhibitor, full curve, poor fit]",–
C/C(=C\c1ccc(C)o1)C(=O)c1c(C)cc(C)[nH]c1=O,"inconclusive [inhibitor, single point]",–
Cc1ccc(C2NC(=NCc3ccccc3)Nc3nc(C)cc(=O)n32)cc1 (configuration not stated),"inconclusive [inhibitor, single point]",–
COc1ccc([N+](=O)[O-])cc1/C=N/NC(=O)CNC(=O)c1cccc(F)c1,"inconclusive [inhibitor, single point]",–
O=C(Nc1ccccc1N1CCOCC1)c1cccnc1Cl,–,inactive: -4.16% [at 10 µM]
O=C(N/N=C/c1c(Cl)cccc1Cl)c1cccc(F)c1,"inconclusive [inhibitor, single point]",–
O=C(Nc1nccs1)c1sc2cc(Cl)ccc2c1Cl,active: 2.82 µM,–
O=C(CSc1nnc2c(Cl)cc(C(F)(F)F)cn12)NCc1ccc(F)cc1,"inconclusive [inhibitor, single point]",–
Cc1ccc(/C=N/n2c(COc3ccccc3)n[nH]c2=S)s1,–,inactive: -1.98%
COc1cccc2cc(C(=O)Oc3ccccc3)c(=O)oc12,active: 10 µM,–
O=C(CCc1nnc(-c2ccc(-c3ccccc3)cc2)o1)NCCc1ccccn1,"inconclusive [inhibitor, full curve, poor fit]",–
COC(=O)c1sccc1-c1ccc(C(=O)Nc2cccnc2)o1,"inconclusive [inhibitor, partial curve]",–
O=C(Cc1cccs1)Nc1ccc(-c2nc3ccccc3[nH]2)cc1,"inconclusive [inhibitor, single point]",–
S=C(c1ccc(-c2ccccc2)cc1)N1CCOCC1,"inconclusive [activator, partial curve]",–
Cc1cc(C)cc(NC(=O)Cn2c(=O)oc3cc(S(=O)(=O)N4CCC(C)CC4)ccc32)c1,"inconclusive [inhibitor, single point]",–
COc1ccc(Cc2noc(CN(C)CCc3ccccc3)n2)cc1OC,"inconclusive [activator, single point]",–
CCCCn1c(CNC(=O)CC)nc2ccccc21,–,inactive: 2.8%
C=CCn1c(CCSCc2ccccc2)n[nH]c1=S,"inconclusive [inhibitor, single point]",–
